Out of some 150,000 compounds screened, about 540 (0.36%) showed an effect of 50% or more. The list shows a part of the results.

In the test the test system is Plasmodium falciparum. As to the kind of experiment: Primary screen in NF54 nanoGlo assay, in single point, at 2uM, 72h; a lower Z score goes with more inhibition. The test is classed as functional, Erythrocyte. The note with it: timepoint 72 hour.
With `Cc1ccc([C@H](CNC(=O)c2ccc(Br)cc2)N2CCCCC2)o1`, the % Inhibition (usually the change of the read-out against control, counted positive when it falls) is 4% and the Z score was -0.61.
For `CCN1CCN(S(=O)(=O)c2cc(-c3nc(-c4cccc(F)c4)no3)sc2C)CC1`, the “% Inhibition” value is reported as -4% and the Z score turned out to be 0.59.
As for `COc1ccc(N2C(=O)N[C@@](NC(=O)c3cccc(Cl)c3)(C(F)(F)F)C2=O)cc1`, the “% Inhibition” value is -7% and the Z score is reported as 0.65.
With `O=C(Nc1cccnc1)[C@@H]1CC=CCC1`, the “% Inhibition” value was -12% and the Z score is 2.35.
For `Cc1cn(C(C)(C)C(=O)N2CCO[C@H]3COCC[C@H]32)cn1` the same measures were -7% and 1.11.
`COc1ccc(N2CCN(c3c4c(nc5nc(C)nn35)CCCC4)CC2)cc1`: the “% Inhibition” value is listed as -4% and the Z score turned out to be 0.71.
In the case of `CCCCN1CCN(c2cncc(C(=O)N(C)C)n2)CC1=O`, the “% Inhibition” value is recorded as -8% and the Z score was 0.77.
For `COc1cncc(S(=O)(=O)N2CCCCc3cc(Cl)ccc32)c1` the same measures were 3% and -0.47.
In the case of `O=C(c1ccc(-c2ccccc2)s1)N1CC[C@H](CN2CCCCC2)C1`, the “% Inhibition” value is on record as -9% and the Z score is 1.23.
Take `Cc1cc(COC(=O)CCc2c[nH]c3ccccc23)no1`: the “% Inhibition” value turned out to be 9% and the Z score is reported as -1.39.
As for `CCC1=C(c2ccc(C)cc2)S(=O)(=O)N=C1NCC(=O)NCc1cc(OC)ccc1OC`, the “% Inhibition” value is -14% and the Z score is listed as 1.41.
For `CC1CN(Cc2ccccn2)CCN1CC(O)c1ccccc1` (centres undefined) the same measures were -3% and 0.37.
With `Cc1ccc(C2CCCCCN2CC(O)CN2CCOCC2)o1` (centres undefined), the “% Inhibition” value is reported as -1% and the Z score was 0.07.
For the molecule `CC1CN(C(=O)C2CCCN(CC(F)(F)F)C2)c2cccnc2O1` (centres undefined), the “% Inhibition” value is listed as -12% and the Z score is 1.35.
`CC(=O)Nc1nc(C(=O)OCC(C)(C)c2ccccc2)cs1`: the “% Inhibition” value is -4% and the Z score turned out to be 0.41.
For `O=C(NC1CCS(=O)(=O)C1)[C@H](Cc1ccccc1)n1c(=O)[nH]c2ccccc2c1=O` (some centres undefined), in that order: -19% and 2.38.
For the molecule `O=C(NCc1ccccc1)c1csc(CN(CCC(c2ccccc2)c2ccccc2)Cc2ccc(F)cc2)n1`, the “% Inhibition” value is given as 2% and the Z score is -0.43.
Take `Cc1[nH]n(-c2ccccc2)c(=O)c1[C@]1(C(F)(F)F)NC(=O)N(Cc2ccccc2)C1=O`: the “% Inhibition” value is given as -4% and the Z score came out at 0.48.
As to `O=C(Nc1cccnc1)c1cc(O)ncn1`, the “% Inhibition” value is given as 1% and the Z score is on record as -0.14.
Regarding `Cc1noc(-c2ccc(S(=O)(=O)NCc3ccco3)o2)c1C`, the “% Inhibition” value is given as -9% and the Z score came to 1.61.
On to `COCCN(CC(=O)Nc1nc(-c2ccccc2)cn1-c1ccc(C(F)(F)F)cc1)C(=O)c1cccs1`, for which the “% Inhibition” value is reported as -14% and the Z score is listed as 2.08.
For `CCc1csc(CNC(=O)[C@H]2CCc3nn(C)c(=O)n3C2)n1`, in that order: -15% and 2.1.
For `Cc1cc(CNC(=O)c2ccc3nc(-c4ccc(F)cc4)cn3c2)no1`, in that order: -21% and 1.93.
For `CC1C[S+]([O-])CCN1CCC(=O)Nc1cc(S(=O)(=O)N2CCCC2)ccc1Cl` (centres undefined), the “% Inhibition” value is -1% and the Z score is recorded as 0.17.
As for `CN(CCn1occ(Br)c1=O)c1ccccc1`, the “% Inhibition” value is recorded as -16% and the Z score is given as 1.43.
For the molecule `Cc1nn(-c2ccccc2)c(C)c1C(=O)Nc1ccc2c(c1)OC(F)(F)O2`, the “% Inhibition” value is listed as 1% and the Z score is reported as -0.19.
For `CC(=O)N1CCC(N2C[C@H](O)C[C@H]2c2nc(-c3cccc(C)c3)no2)CC1`, the “% Inhibition” value is given as -9% and the Z score amounted to 1.54.
For `CN1CCC(CNC(=O)C(C)(C)C)CC1` the same measures were -11% and 1.68.
For `COc1cccc(OCc2nc(C(=O)N3CCN(c4ccccn4)CC3)co2)c1`, in that order: 4% and -0.72.
On to `CCc1ccc(CN(C)C(=O)C[C@]2(c3cccc(OC)c3)CC(=O)N(CCOC)C2=O)cc1`, for which the “% Inhibition” value is recorded as -12% and the Z score came out at 1.71.
For `COCCN1C[C@@H](Cc2cc(O)c(F)c(F)c2)CC1=O` the same measures were 0% and 0.02.
For `O=C([C@@H]1CCCc2ccccc21)N(CC(F)(F)F)C1CCC1` the same measures were -9% and 0.8.
On to `COCCS(=O)(=O)c1ccc(-c2nc([C@H]3CCO[C@@H]3C(C)(C)C)no2)cc1`, for which the “% Inhibition” value was -11% and the Z score turned out to be 1.49.
Turning to `COC(C)(C(=O)N1CCC2(CNC(=O)C2)C1)C1CC1` (centres undefined), the “% Inhibition” value is listed as -8% and the Z score is listed as 1.48.
In the case of `Cc1cc(C)n(-c2ccc(C(=O)N3CCCOCC3)cc2)n1`, the “% Inhibition” value is on record as -15% and the Z score stood at 2.83.
For `CC[C@@H](CC#N)NC(=O)c1cc(CN2CCCC2)on1`, in that order: 0% and -0.01.
For `O=C(NCc1ccc(Cl)cc1Cl)[C@H]1CCCN(C(=O)c2ccoc2)C1`, in that order: 3% and -0.53.
For `Cc1occc1C(=O)NCc1cccnc1N1CCC[C@H](O)C1`, in that order: -9% and 1.6.
As for `CCN(C(=O)c1cn(C(C)(C)C)nn1)c1ccc(C(F)(F)F)cc1`, the “% Inhibition” value is -13% and the Z score was determined as 1.41.
Take `Cc1cc(C)cc(NC(=O)c2nc3c(=O)n(Cc4ccc(Cl)cc4)c4cc(C)ccc4n3n2)c1`: the “% Inhibition” value is given as -3% and the Z score is 0.53.
`OCC[C@H]1CCc2ccccc2N1Cc1ncnn1CC(F)F`: the “% Inhibition” value is on record as -17% and the Z score is given as 2.11.
Turning to `Cn1ccn2ncc(C(=O)N3CC[C@@H]4OCc5cnnn5[C@@H]4C3)c12`, the “% Inhibition” value is recorded as -18% and the Z score is reported as 3.1.
